According to PubChem BioAssay AID1434 (Sanford-Burnham Center for Chemical Genomics, 2008):
Values joined by “and” are separate entries in the source; they are usually repeats but may differ in a detail not shown here. Identical values can stand only once. Some of the results follow. Further columns of the screen follow, without active or inactive calls. Compounds called inactive in the main read-out are mostly missing here.

These compounds were tested against Runt-related transcription factor 1 (Homo sapiens) + Core-binding factor subunit beta (Homo sapiens) (UniProt Q01196+Q13951) (assay: disruptors of Runt domain/CBFb-SMMHC interaction – biochemical, FRET, Cerulean-Runt, Venus-CBFb-SMMHC, uHTS, primary screen (AID 1434;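 note: 0% = DMSO wells and 100% = wells with excess untagged CBFb-SMMHC; inhibitors lower the FRET ratio by blocking Runt binding to CBFb-SMMHC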)). Conditions: Cerulean-Runt/Venus-CBFb-SMMHC FRET ratio 530/480, 1 h; retest duplicate average; at 20 µM; stronger effect = higher value.
UniProt Q01196, sequence (Q01196 whole entry, looked up, the tested form may be a part): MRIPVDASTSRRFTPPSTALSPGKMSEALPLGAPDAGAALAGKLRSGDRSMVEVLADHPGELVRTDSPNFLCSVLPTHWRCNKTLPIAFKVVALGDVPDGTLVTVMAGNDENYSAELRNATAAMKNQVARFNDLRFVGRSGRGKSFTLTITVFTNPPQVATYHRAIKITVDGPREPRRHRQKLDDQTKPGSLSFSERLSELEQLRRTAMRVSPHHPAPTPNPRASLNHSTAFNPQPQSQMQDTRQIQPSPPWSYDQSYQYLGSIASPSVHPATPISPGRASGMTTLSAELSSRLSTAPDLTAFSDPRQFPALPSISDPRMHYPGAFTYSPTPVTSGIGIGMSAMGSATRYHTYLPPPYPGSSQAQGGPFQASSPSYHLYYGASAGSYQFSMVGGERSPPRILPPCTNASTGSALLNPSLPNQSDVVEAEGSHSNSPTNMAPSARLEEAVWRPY
UniProt Q01196, sequence (Q13951 whole entry, looked up, the tested form may be a part): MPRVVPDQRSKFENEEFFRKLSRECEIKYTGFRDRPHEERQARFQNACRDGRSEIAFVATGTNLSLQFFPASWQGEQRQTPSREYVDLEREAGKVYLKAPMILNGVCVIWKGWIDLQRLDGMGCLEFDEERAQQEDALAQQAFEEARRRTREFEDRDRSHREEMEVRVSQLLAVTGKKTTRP
Compound `CCOC(=O)C1=C(CSc2nc3c(cc2C#N)CN(C)CC3)OC(N)=C(C#N)C1c1ccccc1` (centres undefined) has an inhibition of 105%. `CCOC(=O)Cc1c(C)c2c(O)cc(O)cc2oc1=O` showed an inhibition of 66.6%. For `CCOC(=O)c1sc(Nc2nc3c(F)cccc3s2)cc1C`, the inhibition was 99.1%. Compound `COC(=O)c1cc2c(-c3ccccc3)cc3ccccn3c-2c1C(=O)OC` has an inhibition of 85.9%. With `O=C(O)CCC(=O)N1CCN(c2nc(-c3ccccc3Cl)c3cc(Br)ccc3n2)CC1` the inhibition was 56.7%. With `CCOC(=O)c1sc(-c2ccc(Cl)cc2Cl)nc1O` the inhibition was 64.3%. With `CCn1c(=N)c(C(=O)NC)cc2c(=O)n3cccc(C)c3nc21` the inhibition was 72.9%. In the case of `CC(=O)N1CCc2c(sc(NC(=O)c3ccc4c(c3)OCCO4)c2C#N)C1`, the inhibition is reported as 92.2%. With `CCc1ccc(C2=CC(c3cc(Br)ccc3F)n3ncnc3N2)cc1` (centres undefined) the inhibition was 71.5%. Compound `CCN1CCc2nc(NC(=O)c3ccccc3)sc2C1` has an inhibition of 116%. With `N=c1oc2cc(O)ccc2cc1C(=O)Nc1nc2ccccc2s1` the inhibition was 71.5%. In the case of `CC1=C(C#N)C(C)C2=C(CC(C)(C)CC2=O)N1` (centres undefined), the inhibition is reported as 58.4%. For `N#C/C(=C\c1ccncc1)c1nc2c(s1)CCCC2`, the inhibition was 69.5%. Compound `COc1ccc2nccc(/C=C/c3ccnc4ccc(OC)cc34)c2c1` has an inhibition of 70.6%. `CCCc1cc(=O)oc2c(CN3CCCC3)c(O)c(Cl)cc12` showed an inhibition of 178%. In the case of `CC1(C)CC(=O)C2=C(C1)OC(N)=C(C#N)C2c1ccccc1[N+](=O)[O-]` (centres undefined), the inhibition is reported as 94.8%. In the case of `CC(=O)c1sc2nc(C)c3c(c2c1N)CCCC3`, the inhibition is reported as 100%. Work on `COCCN1C=C(C(=O)OC)C(c2ccccc2C(F)(F)F)C(C(=O)OC)=C1` yielded an inhibition of 132%. `Cc1cc2c(c(=O)n1Cc1cccnc1)C(Cc1ccccc1)C(C#N)=C(N)O2` (centres undefined) gave an inhibition of 72.8%. `C=CCn1c(N)c(C(=O)OCCC)c2nc3ccccc3nc21` gave an inhibition of 141%. With `Oc1cc(-n2cccn2)c(O)cc1-n1cccn1` the inhibition was 91.1%. In the case of `CCOc1cc(-c2nc3ccccc3s2)ccc1O`, the inhibition is reported as 130%. With `Cc1ccc2nc(N3CCN(Cc4nnnn4Cc4ccccc4)CC3)c(C#N)cc2c1` the inhibition was 85.1%. For `Cc1cc(/C=N/NC(=O)Cn2c3ccccc3c(=O)c3ccccc32)c(C)n1-c1ccc(Cl)cc1`, the inhibition was 158%. With `Cc1sc2nc3ccc(NCc4ccco4)nn3c(=O)c2c1C` the inhibition was 71.2%. With `CN1CCc2c(sc(/N=C/c3cccs3)c2C(N)=O)C1` the inhibition was 140%. In the case of `CN1CCC2(CC1)C1CN(C)CC=C1C(C#N)=C(N)C2(C#N)C#N` (centres undefined), the inhibition is reported as 125% and 62.6%. `Cc1cc(C)c2c(=O)n(CC(=O)NC3CCCC3)sc2n1` showed an inhibition of 60.6%. In the case of `CC(=O)c1cc2ccc(O)cc2oc1=O`, the inhibition is reported as 70.6%. Compound `CCn1nc(NC(=O)c2ccco2)c2cc3cc(C)ccc3nc21` has an inhibition of 58.3%. In the case of `CCOCCCNC(=S)N1CCCN(c2nc3cc(C)c(C)cc3cc2C#N)CC1`, the inhibition is reported as 73.6%. `COc1cc(C(=S)N2CCCC2)ccc1O` gave an inhibition of 67.8%. `O=[N+]([O-])c1ccc(CNC2CCCc3ccccc32)cc1` (centres undefined) was tested, and the inhibition was 81.8%. In the case of `COc1ccc(OC)c(C2C3=C(CCCC3=O)Nc3c2c(=O)n(C)c(=O)n3C)c1` (centres undefined), the inhibition is reported as 68.2%. `CCc1ccc(/C=C2\Oc3c(ccc(O)c3CN3CCN(C)CC3)C2=O)cc1` was tested, and the inhibition was 70.6%. With `Cc1cc(C)n2nc3nc4c(cc3c2n1)CCCC4` the inhibition was 109%. In the case of `CN1c2ccsc2C(O)=C(C(=S)Nc2ccc(F)c(Cl)c2)S1(=O)=O`, the inhibition is reported as 119%. Compound `CCN(C(=O)CN1CCc2ccccc21)c1c(N)n(Cc2ccccc2)c(=O)[nH]c1=O` has an inhibition of 69.3%. `c1ccn2c(c1)nc1c2nc2ccccn21` gave an inhibition of 72.9%. `CC(C)N1CCc2c(sc(N)c2C#N)C1` showed an inhibition of 149%. With `CCc1ccc(/C=C2\Oc3c(ccc(O)c3CN3CCN(CCO)CC3)C2=O)cc1` the inhibition was 70.6%. For `CCOC(=O)CSc1nc(N2CCOCC2)c2c(c1C#N)CC(C)(C)N(C)C2`, the inhibition was 128%. With `CC1=CC(c2ccc(Cl)cc2)n2nc(NC(=O)CCC(=O)O)nc2N1` (centres undefined) the inhibition was 63.4%. `CC(=O)Oc1c(-c2ccco2)oc2ccccc2c1=O` gave an inhibition of 70.6%. `Cc1ccc(/C=C2/SC(=O)NC2=S)o1` showed an inhibition of 70.9%. With `Fc1ccc(C2CC(c3cccs3)=NN2c2ccccc2)cc1` (centres undefined) the inhibition was 53.9%. For `CCCc1cc(=O)oc2c(CN(CC)CC)c(O)c(Cl)cc12`, the inhibition was 163%. Compound `CCSc1ccc(-c2nn(-c3ccccc3)cc2/C=C(/C#N)C(=O)NC)cc1` has an inhibition of 71.2%. Compound `CCCn1nc(NC(=O)c2cccs2)c2cc3cc(C)ccc3nc21` has an inhibition of 94.8%. `CC(=O)c1ccc(Nc2c3c(c(C#N)c4nc5ccccc5n24)CCC3)cc1` gave an inhibition of 54.9%. `CC(C)c1ccc(/C=C2\Oc3c(ccc(O)c3CN3CCN(C)CC3)C2=O)cc1` gave an inhibition of 70.6%. Compound `COc1ccc(C(=O)/C=C/Nc2ccc(S(=O)(=O)Nc3nc(C)cc(C)n3)cc2)c(OC)c1` has an inhibition of 117%. `COc1ccc(N2C3=C(CC4=C2CCCC4=O)C(=O)CCC3)cc1` showed an inhibition of 106%. For `O=C(Nc1nc2ccccc2s1)c1cc2c(s1)-c1ccccc1OC2`, the inhibition was 81.5%. `Nc1nc2nc(-c3ccc(Cl)cc3)cc(C(F)(F)F)n2n1` gave an inhibition of 59.3%. In the case of `Cc1ccc(/C=C(\C#N)C(=O)Nc2cccc3ncccc23)o1`, the inhibition is reported as 181%. In the case of `COCCCNC(=O)c1cc2c(=O)n3cc(C)ccc3nc2nc1NCC1CCCO1` (centres undefined), the inhibition is reported as 71.5%. `O=C(O)c1cc(N/N=C/C=C/c2ccccc2)ccc1Cl` gave an inhibition of 87.2%. For `COCC(C)OC(=O)c1c(N)n(CC(C)C)c2nc3ccccc3nc12` (centres undefined), the inhibition was 130%. With `COc1cc(Cn2c(N)c(C#N)c3nc4ccccc4nc32)cc(OC)c1` the inhibition was 141%. In the case of `COc1ccc(-c2ccc(CCC(=O)O)n2CC2CCCO2)cc1` (centres undefined), the inhibition is reported as 84.8%. In the case of `CCCCCNc1nc2sc3c(c2c(=O)n1-c1cccc(Cl)c1)CCN(C)C3`, the inhibition is reported as 153%. `N#Cc1c(NCCO)nc(NCc2ccccc2)c2c1CCN(Cc1ccccc1)C2` was tested, and the inhibition was 72.9%. Work on `CN(C)c1nc(-c2cccs2)cc(C(F)(F)F)c1C#N` yielded an inhibition of 102%. For `OCCN1CCN(c2nc(-c3ccccc3)c3cc(Cl)ccc3n2)CC1`, the inhibition was 58.8%. Compound `COC(=O)C1=CNC=C(C(=O)OC)C1c1cccc(OC)c1` has an inhibition of 109%. With `Cc1ccc(C2NC(=O)c3c(sc4c3CCN(C)C4)N2)o1` (centres undefined) the inhibition was 154%. In the case of `CCCn1c(=N)c(C(=O)NC2CCCC2)cc2c(=O)n3cccc(C)c3nc21`, the inhibition is reported as 71.5%. `CC(C)OCCCn1c(=N)c(C(N)=S)cc2c(=O)n3ccccc3nc21` showed an inhibition of 72.9%. With `COc1cc(-c2onc3ccc(Br)cc23)cc(OC)c1OC` the inhibition was 129%. Compound `N#Cc1c(N)n(CCc2ccc(F)cc2)c2nc3ccccc3nc12` has an inhibition of 104%. `Fc1ccc(N2N=C(c3cccs3)CC2c2ccccc2)cc1` (centres undefined) gave an inhibition of 69.6%. `C=C1c2cc(C)c(C)cc2NC(=O)N1c1ccccc1` gave an inhibition of 53.6%. `Cc1ccc(Cn2c(=N)c(C(=O)NCc3ccco3)cc3c(=O)n4ccccc4nc32)cc1` was tested, and the inhibition was 71.5%. `Cc1c(NC(=S)N/N=C/c2ccc(N(C)C)cc2)c(=O)n(-c2ccccc2)n1C` was tested, and the inhibition was 53.3%. Work on `O=C1C2C3C=CC(CO)(O3)C2C(=O)N1c1ccccc1-c1ccccc1` (centres undefined) yielded an inhibition of 67.3%. Work on `CCN(CC)c1ccc2cc(S(=O)(=O)c3ccc(C)cc3)c(=O)oc2c1` yielded an inhibition of 71.5%. Work on `CCN(CC)c1ccc(/C=C(\C#N)C(=O)NCc2ccccc2)cc1` yielded an inhibition of 103%. In the case of `CCCCn1nc(NC(=O)c2cccs2)c2cc3ccccc3nc21`, the inhibition is reported as 66.1%. `CN1CC=C2C(C#N)=C(N)C(C#N)(C#N)[C@H](c3ccoc3)[C@H]2C1` showed an inhibition of 55.5%. Work on `CCc1cc2c(CN3CCN(CCO)CC3)cc(=O)oc2cc1O` yielded an inhibition of 71.5%. Compound `Cc1ccc(C2C3=C(CC(C)(C)CC3=O)N(CCN3CCOCC3)C3=C2C(=O)CC(C)(C)C3)cc1` has an inhibition of 72.9%. Work on `CCOc1ccc(-c2csc(NC(=O)CSCC(=O)O)n2)c2ccccc12` yielded an inhibition of 112%. In the case of `CC(C)N1CCc2c(sc(NC(=O)CCc3ccccc3)c2C(N)=O)C1`, the inhibition is reported as 70.8%.
